{"source": "the supplement of paper PMC8728848", "binders": {"B1": {"name": "XCL (Xerocomus chrysenteron) (protein)", "chain": "MSYSITLRVYQTNRDRGYFSIVEKTVWHFANGGTWSEANGAHTLTQGGSGTSGVLRFLSTKGERITVAVGVHNYKRWCDVVTGLKPDETALVINPQYYNNGGRDYVREKQLAEYSVTSAIGTKVEVVYTVAEGNNLEANVIFS"}}, "assay_in_all_cases": "glycan array binding signal (z-score within array); higher = stronger binding", "conditions_in_all_cases": "glycan notation: IUPAC condensed, linker removed", "key": {"[1]": {"molecular_target": "Gal6S(b1-4)Glc6S", "how_it_was_run": "(§1)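 The binding signal is a Z-score computed within each array and averaged over linkers. Arrays of the same protein sequence at different concentrations or buffers were also averaged together. Data originate from 3228 arrays in the Consortium for Functional Glycomics database, kept only where the protein sequence was available.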"}, "[2]": {"molecular_target": "Gal6S(b1-4)GlcNAc", "how_it_was_run": "as §1"}, "[3]": {"molecular_target": "Gal6S(b1-4)GlcNAc6S", "how_it_was_run": "as §1"}, "[4]": {"molecular_target": "GalNAc(a1-3)Gal", "how_it_was_run": "as §1"}, "[5]": {"molecular_target": "GalNAc(a1-3)GalNAc", "how_it_was_run": "as §1"}, "[6]": {"molecular_target": "GalNAc(a1-3)GalNAc(b1-3)Gal(a1-4)Gal(b1-4)Glc", "how_it_was_run": "as §1"}, "[7]": {"molecular_target": "GalNAc(a1-3)GalNAc(b1-3)Gal(a1-4)Gal(b1-4)GlcNAc", "how_it_was_run": "as §1"}, "[8]": {"molecular_target": "GalNAc(b1-3)Gal", "how_it_was_run": "as §1"}, "[9]": {"molecular_target": "GalNAc(b1-3)Gal(a1-4)Gal(b1-4)GlcNAc", "how_it_was_run": "as §1"}, "[10]": {"molecular_target": "GalNAc(b1-3)Gal(a1-4)Gal(b1-4)GlcNAc(b1-3)Gal(b1-4)Glc", "how_it_was_run": "as §1"}, "[11]": {"molecular_target": "GalNAc(b1-3)Gal(a1-6)Gal(b1-4)Glc", "how_it_was_run": "as §1"}, "[12]": {"molecular_target": "GalNAc(b1-3)GalNAc", "how_it_was_run": "as §1"}, "[13]": {"molecular_target": "GalNAc(b1-4)Gal(b1-4)Glc", "how_it_was_run": "as §1"}, "[14]": {"molecular_target": "GalNAc(b1-4)GlcNAc", "how_it_was_run": "as §1"}, "[15]": {"molecular_target": "GalNAc(b1-4)GlcNAc(b1-2)Man(a1-3)[GalNAc(b1-4)GlcNAc(b1-2)Man(a1-6)]Man(b1-4)GlcNAc(b1-4)GlcNAc", "how_it_was_run": "as §1"}, "[16]": {"molecular_target": "GalNAc(b1-6)GalNAc", "how_it_was_run": "as §1"}, "[17]": {"molecular_target": "Glc(a1-4)Glc", "how_it_was_run": "as §1"}, "[18]": {"molecular_target": "Glc(a1-4)Glc(a1-4)Glc(a1-4)Glc", "how_it_was_run": "as §1"}, "[19]": {"molecular_target": "Glc(a1-6)Glc(a1-6)Glc", "how_it_was_run": "as §1"}, "[20]": {"molecular_target": "Glc(a1-6)Glc(a1-6)Glc(a1-6)Glc", "how_it_was_run": "as §1"}, "[21]": {"molecular_target": "Glc(b1-4)Glc", "how_it_was_run": "as §1"}, "[22]": {"molecular_target": "Glc(b1-6)Glc", "how_it_was_run": "as §1"}, "[23]": {"molecular_target": "GlcA(b1-3)Gal", "how_it_was_run": "as §1"}, "[24]": {"molecular_target": "GlcA(b1-3)GlcNAc", "how_it_was_run": "as §1"}, "[25]": {"molecular_target": "GlcA(b1-6)Gal", "how_it_was_run": "as §1"}, "[26]": {"molecular_target": "GlcNAc(a1-3)Gal(b1-4)GlcNAc", "how_it_was_run": "as §1"}, "[27]": {"molecular_target": "GlcNAc(a1-4)Gal(b1-3)GlcNAc", "how_it_was_run": "as §1"}, "[28]": {"molecular_target": "GlcNAc(a1-4)Gal(b1-4)GalNAc", "how_it_was_run": "as §1"}, "[29]": {"molecular_target": "GlcNAc(a1-4)Gal(b1-4)GlcNAc", "how_it_was_run": "as §1"}, "[30]": {"molecular_target": "GlcNAc(a1-4)Gal(b1-4)GlcNAc(b1-3)Gal(b1-4)Glc", "how_it_was_run": "as §1"}, "[31]": {"molecular_target": "GlcNAc(a1-4)Gal(b1-4)GlcNAc(b1-3)Gal(b1-4)GlcNAc", "how_it_was_run": "as §1"}, "[32]": {"molecular_target": "GlcNAc(a1-4)Gal(b1-4)GlcNAc(b1-3)Gal(b1-4)GlcNAc(b1-3)Gal(b1-4)GlcNAc", "how_it_was_run": "as §1"}, "[33]": {"molecular_target": "GlcNAc(a1-4)Gal(b1-4)GlcNAc(b1-3)Gal(b1-4)[Fuc(a1-3)]GlcNAc(b1-3)Gal(b1-4)[Fuc(a1-3)]GlcNAc", "how_it_was_run": "as §1"}, "[34]": {"molecular_target": "GlcNAc(a1-6)Gal(b1-4)GlcNAc", "how_it_was_run": "as §1"}, "[35]": {"molecular_target": "GlcNAc(b1-2)Gal(b1-3)GalNAc", "how_it_was_run": "as §1"}, "[36]": {"molecular_target": "GlcNAc(b1-2)Man(a1-3)[GlcNAc(b1-2)Man(a1-6)]Man(b1-4)GlcNAc(b1-4)GlcNAc", "how_it_was_run": "as §1"}, "[37]": {"molecular_target": "GlcNAc(b1-2)Man(a1-3)[GlcNAc(b1-2)Man(a1-6)]Man(b1-4)GlcNAc(b1-4)[Fuc(a1-6)]GlcNAc", "how_it_was_run": "as §1"}, "[38]": {"molecular_target": "GlcNAc(b1-2)Man(a1-3)[GlcNAc(b1-4)][GlcNAc(b1-2)Man(a1-6)]Man(b1-4)GlcNAc(b1-4)GlcNAc", "how_it_was_run": "as §1"}, "[39]": {"molecular_target": "GlcNAc(b1-2)[GlcNAc(b1-4)]Man(a1-3)[GlcNAc(b1-2)Man(a1-6)]Man(b1-4)GlcNAc(b1-4)GlcNAc", "how_it_was_run": "as §1"}, "[40]": {"molecular_target": "GlcNAc(b1-2)[GlcNAc(b1-4)]Man(a1-3)[GlcNAc(b1-4)][GlcNAc(b1-2)Man(a1-6)]Man(b1-4)GlcNAc(b1-4)GlcNAc", "how_it_was_run": "as §1"}, "[41]": {"molecular_target": "GlcNAc(b1-2)[GlcNAc(b1-4)]Man(a1-3)[GlcNAc(b1-4)][GlcNAc(b1-2)[GlcNAc(b1-6)]Man(a1-6)]Man(b1-4)GlcNAc(b1-4)GlcNAc", "how_it_was_run": "as §1"}, "[42]": {"molecular_target": "GlcNAc(b1-2)[GlcNAc(b1-6)]Man(a1-6)[GlcNAc(b1-2)Man(a1-3)]Man(b1-4)GlcNAc(b1-4)GlcNAc", "how_it_was_run": "as §1"}, "[43]": {"molecular_target": "GlcNAc(b1-2)[GlcNAc(b1-6)]Man(a1-6)[GlcNAc(b1-2)Man(a1-3)][GlcNAc(b1-4)]Man(b1-4)GlcNAc(b1-4)GlcNAc", "how_it_was_run": "as §1"}, "[44]": {"molecular_target": "GlcNAc(b1-3)Gal", "how_it_was_run": "as §1"}, "[45]": {"molecular_target": "GlcNAc(b1-3)Gal(b1-3)GalNAc", "how_it_was_run": "as §1"}}, "note": "This is one part of the list.", "data": [{"binder": "B1", "values": [{"measurement": "glycan array binding signal (z-score)", "setting": "[1]", "result": -0.302}, {"measurement": "glycan array binding signal (z-score)", "setting": "[2]", "result": -0.253}, {"measurement": "glycan array binding signal (z-score)", "setting": "[3]", "result": -0.32}, {"measurement": "glycan array binding signal (z-score)", "setting": "[4]", "result": -0.3}, {"measurement": "glycan array binding signal (z-score)", "setting": "[5]", "result": -0.303}, {"measurement": "glycan array binding signal (z-score)", "setting": "[6]", "result": -0.062}, {"measurement": "glycan array binding signal (z-score)", "setting": "[7]", "result": -0.069}, {"measurement": "glycan array binding signal (z-score)", "setting": "[8]", "result": -0.313}, {"measurement": "glycan array binding signal (z-score)", "setting": "[9]", "result": -0.32}, {"measurement": "glycan array binding signal (z-score)", "setting": "[10]", "result": -0.322}, {"measurement": "glycan array binding signal (z-score)", "setting": "[11]", "result": -0.323}, {"measurement": "glycan array binding signal (z-score)", "setting": "[12]", "result": 0.592}, {"measurement": "glycan array binding signal (z-score)", "setting": "[13]", "result": -0.311}, {"measurement": "glycan array binding signal (z-score)", "setting": "[14]", "result": -0.285}, {"measurement": "glycan array binding signal (z-score)", "setting": "[15]", "result": -0.323}, {"measurement": "glycan array binding signal (z-score)", "setting": "[16]", "result": -0.321}, {"measurement": "glycan array binding signal (z-score)", "setting": "[17]", "result": -0.324}, {"measurement": "glycan array binding signal (z-score)", "setting": "[18]", "result": -0.321}, {"measurement": "glycan array binding signal (z-score)", "setting": "[19]", "result": -0.318}, {"measurement": "glycan array binding signal (z-score)", "setting": "[20]", "result": -0.318}, {"measurement": "glycan array binding signal (z-score)", "setting": "[21]", "result": -0.304}, {"measurement": "glycan array binding signal (z-score)", "setting": "[22]", "result": -0.298}, {"measurement": "glycan array binding signal (z-score)", "setting": "[23]", "result": -0.318}, {"measurement": "glycan array binding signal (z-score)", "setting": "[24]", "result": -0.317}, {"measurement": "glycan array binding signal (z-score)", "setting": "[25]", "result": -0.309}, {"measurement": "glycan array binding signal (z-score)", "setting": "[26]", "result": 1.7}, {"measurement": "glycan array binding signal (z-score)", "setting": "[27]", "result": 1.03}, {"measurement": "glycan array binding signal (z-score)", "setting": "[28]", "result": 0.367}, {"measurement": "glycan array binding signal (z-score)", "setting": "[29]", "result": 2.15}, {"measurement": "glycan array binding signal (z-score)", "setting": "[30]", "result": 1.76}, {"measurement": "glycan array binding signal (z-score)", "setting": "[31]", "result": 1.75}, {"measurement": "glycan array binding signal (z-score)", "setting": "[32]", "result": 5.84}, {"measurement": "glycan array binding signal (z-score)", "setting": "[33]", "result": 0.858}, {"measurement": "glycan array binding signal (z-score)", "setting": "[34]", "result": 0.302}, {"measurement": "glycan array binding signal (z-score)", "setting": "[35]", "result": -0.139}, {"measurement": "glycan array binding signal (z-score)", "setting": "[36]", "result": 4.71}, {"measurement": "glycan array binding signal (z-score)", "setting": "[37]", "result": 1.03}, {"measurement": "glycan array binding signal (z-score)", "setting": "[38]", "result": 5.38}, {"measurement": "glycan array binding signal (z-score)", "setting": "[39]", "result": 2.79}, {"measurement": "glycan array binding signal (z-score)", "setting": "[40]", "result": 4.92}, {"measurement": "glycan array binding signal (z-score)", "setting": "[41]", "result": 1.33}, {"measurement": "glycan array binding signal (z-score)", "setting": "[42]", "result": 1.42}, {"measurement": "glycan array binding signal (z-score)", "setting": "[43]", "result": 3.42}, {"measurement": "glycan array binding signal (z-score)", "setting": "[44]", "result": 0.225}, {"measurement": "glycan array binding signal (z-score)", "setting": "[45]", "result": 3.71}]}]}
